# The campaign covered roughly 310,000 compounds. About 2,200 (0.71%) showed an effect of 50% or more. Effects have a minus sign here. The list shows a part of the results.
# Target: human ether-à-go-go-related gene (hERG) potassium channel (human, UniProt Q12809)
# Experiment: primary screen, population patch clamp on CHO cells stably expressing hERG
# human ether-à-go-go-related gene (hERG) potassium channel, sequence (Q12809 whole entry, looked up): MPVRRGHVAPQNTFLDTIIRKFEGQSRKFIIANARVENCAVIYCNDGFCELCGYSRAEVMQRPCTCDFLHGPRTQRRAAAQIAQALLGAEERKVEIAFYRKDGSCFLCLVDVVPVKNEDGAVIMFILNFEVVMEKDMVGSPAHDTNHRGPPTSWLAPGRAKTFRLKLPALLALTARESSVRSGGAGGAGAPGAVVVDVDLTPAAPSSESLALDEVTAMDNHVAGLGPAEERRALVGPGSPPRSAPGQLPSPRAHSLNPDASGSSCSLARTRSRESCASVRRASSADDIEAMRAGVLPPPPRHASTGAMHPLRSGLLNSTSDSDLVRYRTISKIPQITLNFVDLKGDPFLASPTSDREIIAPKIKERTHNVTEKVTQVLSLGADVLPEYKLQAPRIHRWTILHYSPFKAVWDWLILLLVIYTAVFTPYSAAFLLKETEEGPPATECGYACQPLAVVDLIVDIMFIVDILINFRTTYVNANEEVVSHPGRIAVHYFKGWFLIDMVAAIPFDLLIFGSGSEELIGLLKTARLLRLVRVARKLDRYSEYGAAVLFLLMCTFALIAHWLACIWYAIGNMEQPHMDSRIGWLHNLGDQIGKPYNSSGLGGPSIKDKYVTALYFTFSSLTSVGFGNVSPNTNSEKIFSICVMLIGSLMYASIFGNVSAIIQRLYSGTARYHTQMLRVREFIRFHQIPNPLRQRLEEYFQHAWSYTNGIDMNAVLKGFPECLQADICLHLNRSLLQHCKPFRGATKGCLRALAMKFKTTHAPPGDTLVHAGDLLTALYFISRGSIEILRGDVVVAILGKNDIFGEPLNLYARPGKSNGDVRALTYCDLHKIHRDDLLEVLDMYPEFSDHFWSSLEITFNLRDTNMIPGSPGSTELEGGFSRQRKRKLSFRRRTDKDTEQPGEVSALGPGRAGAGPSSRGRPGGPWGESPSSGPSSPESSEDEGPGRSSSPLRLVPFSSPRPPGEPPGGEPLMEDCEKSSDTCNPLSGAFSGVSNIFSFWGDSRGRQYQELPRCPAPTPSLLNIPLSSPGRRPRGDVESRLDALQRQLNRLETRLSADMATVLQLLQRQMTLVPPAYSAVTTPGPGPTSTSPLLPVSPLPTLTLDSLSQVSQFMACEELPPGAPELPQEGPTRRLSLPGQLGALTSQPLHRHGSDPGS
row,Compound,"hERG current change (%, negative = inhibition) at 1uM [%]"
1,COc1ccc(CNC(=O)N[C@@H](CC(C)C)C(=O)O)cc1OC,5.69
2,O=C(NCC(c1ccco1)N1CCOCC1)c1ccc(Cl)cc1 (centres unmarked),1.07
3,NC(=O)[C@@H]1CCCCNc2c(I)cc([N+](=O)[O-])cc2C(=O)N[C@@H](CCC(=O)O)C(=O)N[C@@H](CO)C(=O)N1,11.2
4,COc1cc(NC(=O)CSc2nnc3ccccn23)cc(OC)c1,2.78
5,COc1ccc(CN2CCNC(=O)C2CC(=O)N(C)Cc2nccs2)cc1OC (centres unmarked),5.26
6,Cc1cc(C)cc(NC(=O)N2CCC(c3nc4ccccc4o3)CC2)c1,2.63
7,COc1ccc(OCC(O)CN2CCN(c3ccc(OC)cc3)CC2)cc1.Cl (centres unmarked),-2.16
8,Oc1ccc(N=Cc2ccc(OCc3ccccc3)cc2)cc1,13.9
9,O=C(Nc1ccc([N+](=O)[O-])cc1)c1cn(-c2ccccc2)nc1-c1cc2ccccc2o1,11.9
10,Nc1ccc(NC2C[C@@H](C(=O)O)NC2=O)cc1 (some centres unmarked),10.6
11,CCOc1ccc(NC(=O)Nc2nnc(CC(=O)NCc3ccccc3)s2)cc1,16.1
12,CCOC(=O)N1CCC(N2Cc3cccc(C(=O)NCc4ccc5c(c4)OCO5)c3C2=O)CC1,11.5
13,Cc1ccccc1Nc1nc(N)nc(CSc2ccccc2)n1,0.1
14,COC(=O)CCC(=O)NC(=S)Nc1ccc(S(=O)(=O)Nc2cc(C)on2)cc1,18.2
15,C=CCC1(CC=C)CCCN1C(=O)C1CCC(=O)N(CCc2ccc(OC)cc2)C1 (centres unmarked),0.621
16,O=C1C=C(Nc2ccc(F)cc2)c2ccccc2C1=O,8.51
17,O=C(Cn1cnc2ccccc2c1=O)NCC(=O)N1CCN(c2ccccn2)CC1,4.16
18,CC(C)CCN(C(=O)CNC(=O)c1cccs1)C(C(=O)NC1CCCC1)c1ccncc1 (centres unmarked),10.7
19,Cn1c(CC(=O)Nc2ccc(Cl)c(Cl)c2)nnc1SCC(=O)NCc1ccccc1,9.85
20,O=C(CN1CCCCCC1)NN(Cc1ccccc1)c1ccccc1.O=C(O)C(=O)O,-46.3
21,CCN(CC)C(=O)N1CCN(S(=O)(=O)c2ccc(C)c(C)c2)CC1,12.8
22,Cn1c(CNc2nc(-c3ccccc3)cs2)nnc1SCC(=O)OC1CCCCC1,3.84

row,Compound,"hERG current change (%, negative = inhibition) at 1uM [%]"
1,Cn1cc(CCC(=O)NCc2ccc3c(c2)OCO3)c2ccccc21,1.24
2,CC(C)C(C)NC(=O)COc1ncnc2sccc12 (centres unmarked),11.8
3,CCOc1ccc(S(=O)(=O)N(C)CC(=O)NCc2ccccn2)cc1Cl,1.65
4,COc1ccc(S(=O)(=O)Oc2c(OC)cc(C(=S)N3CCOCC3)cc2OC)cc1,10.6
5,Cc1ccc2[nH]cc(C(=O)CCl)c2c1,15.2
6,Cc1cc(Cl)nc2c(C(C)C)cccc12,13.1
7,Cc1cc(C)c2c(n1)SCC(=O)N2CC(=O)NCCC1=CCCCC1,12.5
8,CCOC(=O)c1c(C)oc2ccc(OCc3cc(C(=O)OC)oc3C)cc12,3.07
9,CCc1nc(NC(=O)NS(=O)(=O)c2ccccc2C(=O)OC)nc(OC)n1,14.4
10,O=C(Nc1nnc(C2CCCO2)s1)c1ccc(Br)cc1 (centres unmarked),-4.36
11,CCCCCOC(=O)C1[C@H]2C(=O)N(c3ccccc3CC)C[C@]23C=C[C@H]1O3 (some centres unmarked),7.85
12,FC(F)(F)Oc1ccc(NC(=S)NCc2ccccc2)cc1,4.98
13,CC(=O)c1ccccc1NS(C)(=O)=O,9.61
14,O=C(Nc1ccc(C(=O)N2CCC(O)(c3ccc(Cl)c(C(F)(F)F)c3)CC2)cc1)c1ccc(Br)o1,14.3
15,COc1ccccc1/C=C/C(=O)OCC(=O)Nc1ccc2c(c1)OCCO2,9.66
16,COC(=O)c1ccc(C(NC(=O)OCc2ccccc2)/C(C)=C/[C@@H](C)C(=O)NCc2ccc(OC)c(OC)c2)cc1 (some centres unmarked),4.01
17,COc1ccc(-c2nc(C#N)c(NCCCn3ccnc3)o2)cc1OC,4.48
18,COC(=O)c1cc2occc2n1CC(=O)Nc1ccc(C)cc1C,16
19,O=C(Nc1ccccc1)N1CCC(=S)Nc2ccccc21,7.14
20,CCCCC(=O)Nc1nnc(SCC(=O)NCC2CCCO2)s1 (centres unmarked),3.49
21,O=C(Nc1nccs1)c1ccc(COc2c(F)c(F)cc(F)c2F)cc1,18.9
22,O=C(c1cccs1)N1CCC2(O)CCCCC2C1c1ccc(F)cc1 (centres unmarked),11.4

row,Compound,"hERG current change (%, negative = inhibition) at 1uM [%]"
1,CC(C)(C)NC(=O)C1CCN(S(=O)(=O)c2ccc(Br)cc2)CC1,6.58
2,CCOC(=O)c1ccc(NC(=O)C2CC(=O)N=C(N)S2)cc1 (centres unmarked),10.3
3,CNC(=O)CN(c1ccc(OC)cc1)S(=O)(=O)c1ccc(F)cc1,3.91
4,COc1ccc(CN2CCN(C(=O)C3CCC(CNS(=O)(=O)c4ccccc4)CC3)CC2)c(OC)c1OC (centres unmarked),1.84
5,O=C(C1CCN(c2nnc(-n3cccc3)s2)CC1)N1CCc2ccccc2C1,-44.7
6,Cc1csc(NC(=O)CCn2c(=O)oc3ccc(Cl)cc32)n1,11.7
7,O=C(O)CCCNS(=O)(=O)/C=C/c1ccccc1,8.46
8,Cc1cc(NC(=O)CSc2nccn2-c2ccc([N+](=O)[O-])cc2)no1,4.49
9,Cc1ccc(S(=O)(=O)N(C)C)cc1NC(=O)COC(=O)CN1C(=O)c2ccccc2C1=O,14.6
10,NCCS(=O)(=O)O,31.2
11,OC1CCN(C(=S)NCCc2ccccc2)CC1,8.88
12,O=C(NC(=S)N1CCN(C/C=C/c2ccccc2)CC1)c1ccco1,4.12
13,CCCN(CC(=O)Nc1ccccc1OC)C(=O)CSc1ccc(Br)cc1C,3.26
14,CC(C)(O[C@@H]1O[C@H](CO)[C@@H](O)[C@H](O)[C@H]1O)[C@H]1Cc2cc3ccc(=O)oc3cc2O1,9.36
15,CCOC(=O)CC(NC(=O)Cn1nnc(-c2ccccc2F)n1)c1ccc(OC)cc1 (centres unmarked),13.4
16,CCC(C(=O)N1CCN(c2ccccn2)CC1)n1nc(C)n2c(cc3occc32)c1=O (centres unmarked),8.44
17,O=C(O)c1cc(-c2ccc3c(c2)OCO3)nc2ccccc12,2.4
18,CN(C(=O)c1ccccc1C(=O)OCC(=O)Nc1cccc(Br)c1)c1ccccc1,-2.76
19,COC(=O)c1sccc1NC(=S)N1CCCCC1C (centres unmarked),20.5
20,CC(C)CNP(=S)(c1ccccc1)C(C)(C)C (centres unmarked),5.6
21,Cc1ccc(CN2CCN(Cc3ccncc3)CC2CCO)o1 (centres unmarked),-1.98
22,COc1ccccc1NS(=O)(=O)c1ccc(Cl)c(NC(=O)CN2C(=O)c3ccccc3C2=O)c1,4.76

row,Compound,"hERG current change (%, negative = inhibition) at 1uM [%]"
1,O=C(Cc1csc(Nc2nc(=S)[nH]c3ccccc23)n1)NCc1ccc(Cl)cc1,-0.883
2,CCN(CC)S(=O)(=O)c1ccc(N2CCOCC2)c(NC(=O)C(C)Oc2ccc(F)cc2)c1 (centres unmarked),14.5
3,CCOC(=O)N1CCN(c2ccc(N3C(=O)CCCC3=O)cc2[N+](=O)[O-])CC1,23.4
4,CC1CCN(C(=O)CC#N)CC1,12.4
5,COc1cccc(CNC(=O)COc2cccc(-n3cnnn3)c2)c1,-4.51
6,O=C(CCC1CCCN(C(=O)c2ccccc2Cl)C1)N1CCN(c2ccccn2)CC1 (centres unmarked),8.95
7,COc1ccc(C(=O)NC2CCN(C(=O)Nc3ccccc3Cl)CC2)cc1,12.9
8,COC(=O)C1=NNC2(c3ccc(C)cc3)C(=O)N(c3cccc(C)c3C)C(=O)C12 (centres unmarked),5.64
9,CCOc1ccccc1NC(=O)/C(C#N)=C/c1c(C)nn(-c2ccc(F)cc2)c1Cl,2.45
10,CC(C)N(C(=O)N1CCC(c2nc(-c3ccncc3)no2)CC1)C(C)C,-6.46
11,CC(=O)Nc1cc(NC(C)=O)cc(-c2nc3ccccc3[nH]2)c1,10.7
12,CC(C)NC(=S)NNC(=O)C12CC3CC(CC(C3)C1)C2,0.571
13,CCOC(=O)C1=C(CSc2nc3ccccc3s2)NC(=O)NC1c1cccc([N+](=O)[O-])c1 (centres unmarked),8.74
14,COc1ccc(/C=C2\SC(=O)N(CC(=O)NNC(=O)c3ccccc3O)C2=O)cc1OC,-3.05
15,COc1ccc(Nc2nnc(SC(C(=O)Nc3ccc(OC)c(Cl)c3)c3ccccc3)s2)cc1 (centres unmarked),13.4
16,CN(C(=S)NC1CCCCC1)C1(c2ccccc2Cl)CCCCC1=O (centres unmarked),-5.81
17,Cn1c(=O)c2c(SCC(=O)c3ccccc3)nc(C3CC3)nc2n(C)c1=O,7.75
18,COC(=O)[C@H](Cc1ccccc1)NC(=O)[C@@]1(C)C[C@@H]1[C@@H](NC(=O)OCc1ccccc1)c1ccccc1,-3.09
19,COC(=O)COc1cccc(NC(=O)c2cccc(C)c2)c1,5.31
20,Nc1cc(N)nc(SCc2cc(=O)oc3cc4c(cc23)CCC4)n1,11.2

# — paper PMC4336329 (PLoS ONE, 2015)
